In one experiment the target is GST-Kindlin-2 (UniProt Q96AC1). The experiment in a line: pull-down; mixture of purified GST-MafA and GST-Kindlin-2 immunoprecipitated with the indicated antibodies, Western blot; both purified. In general terms: A western blot detects proteins with antibodies after separation by electrophoresis.
The target in another experiment is HA-MafA (mouse) (UniProt Q8CF90). The experiment in a line: co-IP; whole cell extracts from COS-7 cells overexpressing pCMV/Flag-Kindlin-2 and pCMV/HA-MafA; immunoprecipitated with anti-Kindlin-2 or anti-MafA antibody, Western blot.
Experiment [1] addresses Flag-Kindlin-2 aa 570-680 (UniProt Q96AC1). The experiment in a line: co-IP; COS-7 cells transfected with MafA expression plasmids and Flag-Kindlin-2 deletion mutants, 48 h; whole cell extracts immunoprecipitated with M2 antibody, Western blot with M2 or MafA antibody.
The target in the next experiment is Flag-Kindlin-2 aa 1-569 (UniProt Q96AC1). The experiment is described as above.
A further experiment deals with Flag-Kindlin-2 aa 1-239 (UniProt Q96AC1). Described as above.
The target of the next experiment is Flag-Kindlin-2 (UniProt Q96AC1). The experiment can be described thus: co-IP; whole cell extracts from COS-7 cells overexpressing pCMV/Flag-Kindlin-2 and pCMV/HA-MafA; immunoprecipitated with anti-Kindlin-2 or anti-MafA antibody, Western blot.

The chains behind the UniProt entries cited, without tags or fusion partners. Where a name states a change or a piece, a line headed by the entry shows the natural chain unless it says otherwise. Residues count along the entry.
UniProt Q96AC1: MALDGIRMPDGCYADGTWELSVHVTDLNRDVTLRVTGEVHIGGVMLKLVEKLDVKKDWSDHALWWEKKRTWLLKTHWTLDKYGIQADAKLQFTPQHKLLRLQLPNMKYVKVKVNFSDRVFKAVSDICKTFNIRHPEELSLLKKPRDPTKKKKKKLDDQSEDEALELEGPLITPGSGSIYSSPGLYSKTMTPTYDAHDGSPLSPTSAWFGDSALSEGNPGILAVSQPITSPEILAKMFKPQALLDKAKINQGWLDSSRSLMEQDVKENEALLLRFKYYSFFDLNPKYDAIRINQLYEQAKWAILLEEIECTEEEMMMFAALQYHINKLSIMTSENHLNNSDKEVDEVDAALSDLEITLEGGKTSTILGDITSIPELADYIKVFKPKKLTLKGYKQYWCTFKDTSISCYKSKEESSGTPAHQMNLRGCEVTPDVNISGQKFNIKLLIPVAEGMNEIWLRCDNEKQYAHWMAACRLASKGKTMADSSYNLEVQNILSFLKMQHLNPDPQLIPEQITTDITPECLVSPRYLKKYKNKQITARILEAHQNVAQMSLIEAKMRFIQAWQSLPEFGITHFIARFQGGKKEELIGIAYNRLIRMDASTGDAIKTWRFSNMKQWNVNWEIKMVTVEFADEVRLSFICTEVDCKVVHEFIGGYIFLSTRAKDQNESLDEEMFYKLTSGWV
Flag-Kindlin-2 aa 1-569: residues 1-569 of Q96AC1
Flag-Kindlin-2 aa 1-239: residues 1-239 of Q96AC1
Flag-Kindlin-2 aa 570-680: residues 570-680 of Q96AC1
UniProt Q8CF90: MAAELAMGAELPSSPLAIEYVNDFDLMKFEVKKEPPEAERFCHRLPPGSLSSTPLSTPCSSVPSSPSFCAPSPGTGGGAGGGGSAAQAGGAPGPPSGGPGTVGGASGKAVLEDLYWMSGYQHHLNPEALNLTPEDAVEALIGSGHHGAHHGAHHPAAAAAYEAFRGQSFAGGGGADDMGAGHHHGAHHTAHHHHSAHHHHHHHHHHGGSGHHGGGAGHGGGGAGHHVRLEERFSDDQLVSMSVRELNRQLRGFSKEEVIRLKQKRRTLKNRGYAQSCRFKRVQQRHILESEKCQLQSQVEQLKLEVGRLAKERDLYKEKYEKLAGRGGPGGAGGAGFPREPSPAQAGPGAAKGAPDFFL

No constants are given. Whether binding was seen depends on the method and setting. For part of these data: Binding seen in cells or lysates may run through a third protein. Some entries that bind do so weakly or less than the wild type.

As to “glutathione S-transferase (GST)-MafA fusion protein (from UniProt Q8CF90 1-359)”, the binding entry with GST-Kindlin-2 is recorded as “binds”.

With “Flag-Kindlin-2 (from UniProt Q96AC1 1-680)”, the binding entry with HA-MafA (mouse) is recorded as “binds”.

“MafA (from MafA expression plasmids, COS-7) (from UniProt Q8CF90 1-359)”: the binding result was “binds” in experiment [1], “no binding” in the experiment with Flag-Kindlin-2 aa 1-569 and “no binding” with Flag-Kindlin-2 aa 1-239.

For the substance HA-MafA (from UniProt Q8CF90 1-359), the binding result with Flag-Kindlin-2 is given as “binds”.
